What was measured:
[1] = molecular target: T1, monkey IL-33 expressed with C-terminal hexahistidine tag (MfIL-33-6His) (cynomolgus monkey (M. fascicularis)); assay: cell-based or functional assay
T1 chain: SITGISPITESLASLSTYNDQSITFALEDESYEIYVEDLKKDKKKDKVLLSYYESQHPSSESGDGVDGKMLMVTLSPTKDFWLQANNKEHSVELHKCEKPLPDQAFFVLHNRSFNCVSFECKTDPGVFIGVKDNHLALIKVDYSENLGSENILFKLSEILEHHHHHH

[2] = molecular target: T2, human IL-33 (R&D Systems, # 3625-IL-010/CF) (human, UniProt O95760 112-270, biotinylated in the blocking ELISA of Example 3 (sites not given)); assay: cell-based or functional assay
T2 sequence (looked up): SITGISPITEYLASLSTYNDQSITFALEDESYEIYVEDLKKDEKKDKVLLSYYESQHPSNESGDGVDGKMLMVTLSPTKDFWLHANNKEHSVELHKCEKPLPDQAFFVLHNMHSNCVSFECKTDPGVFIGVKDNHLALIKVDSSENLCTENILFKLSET

[3] = molecular target: T3, mouse IL-33 (R&D Systems, # 3626-ML-010/CF) (mouse, UniProt Q8BVZ5 109-266); assay: cell-based or functional assay
T3 sequence (looked up): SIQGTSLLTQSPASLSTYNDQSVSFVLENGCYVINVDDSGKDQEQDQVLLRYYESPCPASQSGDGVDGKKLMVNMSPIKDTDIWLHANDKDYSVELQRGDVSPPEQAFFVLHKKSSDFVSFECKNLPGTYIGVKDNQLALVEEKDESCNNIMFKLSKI

[4] = molecular target: T2, human IL-33 (R&D Systems, # …); assay: competition ELISA; antagonist pre-mixed with 20 pM biotin-hIL-33, binding to plate-coated human ST2-Fc; highest concentration tested
Procedure: (§1) The ability of exemplary IL-33 antagonists of the invention to block human IL-33 (hIL-33) binding to the human ST2 receptor was measured using a competition sandwich ELISA. A portion of human ST2 protein ecto domain that was expressed with a C-terminal mouse Fc tag (SEQ ID NO:2) was coated at a concentration of 1 μg/mL in PBS buffer on a 96-well microtiter plate overnight at 4° C. […] Biotinylated hIL-33 protein (R&D systems, #3625-IL/CF) (biot-hIL-33) was added to achieve a constant final concentration of 20 pM to serial dilutions of IL-33 antagonists ranging from 0 to 100 nM. The mixture was incubated for 1 hour at room temperature (RT) before transfer to the hST2-hFc coated microtiter plates. After incubation for 1 hour at RT, the wells were then washed, and plate-bound biot-hIL-33 was detected with HRP-conjugated streptavidin (Thermo Scientific, # N200). All samples were developed with a TMB solution (BD biosciences, # 51-2607KC) to produce a colorimetric reaction and then quenched by acidification with 1M sulfuric acid before measuring absorbance at 450 nm on a Victor X5 plate reader (PerkinElmer). Data analysis was performed using a sigmoidal dose-response model within Prism™ software. […] The absorbance measured at the constant amount of hIL-33 on the dose curve was defined as 0% blocking and the absorbance with no added IL-33 was defined as 100% blocking. […]

[5] = molecular target: T2, human IL-33 (R&D Systems, # …); assay: SPR (Biacore T-200), 25 C; Fc fusion captured by anti-Fc antibody, IL-33 injected
Procedure: (§2) The Biacore sensor surface was first derivatized by amine coupling a polyclonal rabbit anti-mouse antibody (GE, # BR-1008-38) or with a monoclonal mouse anti-human Fc antibody (GE, # BR-1008-39) to capture IL-33 Trap and receptor proteins with a C-terminal mouse IgG2a Fc tag or a C-terminal human IgG1 Fc tag, respectively. Kinetic experiments were carried out in 0.01 M HEPES pH 7.4, 0.15 M NaCl, 3 mM EDTA, and 0.005% v/v Surfactant Tween-20 (HBST running buffer). Different concentrations of human IL-33, mouse IL-33 or MfIL-33-6His prepared in HBST running buffer (ranging from 60 nM to 27.4 pM, 3-fold dilutions, for Trap proteins and ranging from 60 nM to 0.25 nM, 3-fold dilutions, for ST2 receptor proteins) were injected over the captured IL-33 Trap and receptor protein surfaces at a flow rate of 50 μL/minute. Association of different IL-33 proteins to the different capture surfaces was monitored for 7 minutes for Trap proteins or 4 minutes for ST2 receptor proteins and their dissociation in HBST running buffer was monitored for 14 minutes for Trap proteins or 8 minutes for ST2 receptor proteins. Kinetic association (ka) and dissociation (kd) rate constants were determined by fitting the real-time binding sensorgrams to a 1:1 binding model using Scrubber 2.0c curve-fitting software. Binding dissociation equilibrium constants (KD) and dissociative half-lives (t½) were calculated from the kinetic rate constants as: […]

[6] = molecular target: T2, human IL-33 (R&D Systems, # …); assay: competition ELISA; antagonist pre-mixed with 20 pM biotin-hIL-33, binding to plate-coated human ST2-Fc
Procedure: as §1

[7] = molecular target: T3, mouse IL-33 (R&D Systems, # …); assay: SPR (Biacore T-200), 25 C; Fc fusion captured by anti-Fc antibody, mouse IL-33 injected
Procedure: as §2

B1: hST2-hFc (Fc fusion)
chain: KFSKQSWGLENEALIVRCPRQGKPSYTVDWYYSQTNKSIPTQERNRVFASGQLLKFLPAAVADSGIYTCIVRSPTFNRTGYANVTIYKKQSDCNVPDYLMYSTVSGSEKNSKIYCPTIDLYNWTAPLEWFKNCQALQGSRYRAHKSFLVIDNVMTEDAGDYTCKFIHNENGANYSVTATRSFTVKDEQGFSLFPVIGAPAQNEIKEVEIGKNANLTCSACFGKGTQFLAAVLWQLNGTKITDFGEPRIQQEEGQNQSFSNGLACLDMVLRIADVKEEDLLLQYDCLALNLHGLRRHTVRLSRKNPIDHHS[letters of human IgG1 Fc left out]
notes: also called first IL-33 antagonist; ST2 receptor protein
Question: What does the source list for B1?
Answer: IC50 (M), inhibition of 5 pM monkey IL-33 activation of HEK293/hST2/NFkB-luciferase cells [1]: 4.6e-12 M; IC50 (M), inhibition of 5 pM human IL-33 activation of HEK293/hST2/NFkB-luciferase cells [2]: 1e-11 M; IC50 (M), inhibition of 30 pM mouse IL-33 activation of HEK293/hST2/NFkB-luciferase cells [3]: 1.1e-10 M; % Maximum blocking [4]: 99%; 60 nM Human IL-33 Bound (RU) [5]: 25 RU; Kd [5]: 0.054 nM; koff [5]: 0.00032 s⁻¹; kon [5]: 5.9e+06 M⁻¹ s⁻¹; t1/2 [5]: 36 min; IC50 [6]: 0.0192 nM; 60 nM Mouse IL-33 Bound (RU) [7]: 18 RU; Kd [7]: 0.102 nM; koff [7]: 0.000423 s⁻¹; kon [7]: 4.1e+06 M⁻¹ s⁻¹; t1/2 [7]: 27 min
